Read-outs that look alike come from different tables or passages of the source. Some of the results follow.
Test system: T1, C. trachomatis L2/434/Bu expressing GFP (CTL2-GFP)
T1 construct: L2/434/Bu GFP intracellular growth in HeLa cells
Parameters: species or system HeLa; C. trachomatis total inclusion area by high-content imaging, normalised to DMSO
Procedure, shortened: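 Bulk GFP and resorufin signals were read first. Wells were then fixed, stained with Hoechst and imaged to detect GFP inclusions and host nuclei. MICs followed the previously described calculation.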

[1] = total inclusion area; 28.5 h, 10 µM; inhibitor

With `CC(C)(C)c1ccc(S(=O)(=O)N2CCCC[C@H]2COC(=O)c2nccnc2C(=O)O)cc1` [CBK200065] the “% of control remaining” value [1] was 101.48.

With `Cn1cc(CC2CCN(Cc3ccc(Oc4cnccn4)cc3)C2)cn1` (stereo not drawn) [CBK304188] the “% of control remaining” value [1] was 102.865.

In the case of `CSCCCNC(=O)c1ccc2[nH]ccc2c1` [CBK149056], the “% of control remaining” value [1] is reported as 102.221.

With `N[C@H](CSCc1ccccc1)C(=O)Nc1ccc([N+](=O)[O-])cc1` [CBK074824] the “% of control remaining” value [1] was 75.4909.

`Cc1ncc([N+](=O)[O-])n1CC(=O)NC1CCCCCC1` [CBK269194] was tested, and the “% of control remaining” value [1] was 131.58.

`COc1ccccc1-c1nccnc1OCc1cccs1` [CBK106819] was tested, and the “% of control remaining” value [1] was 78.6916.

With `CC(C)(C)NC(=O)Cn1cncc1-c1cnn(-c2ccccc2)c1` [CBK281697] the “% of control remaining” value [1] was 75.5104.

With `COC(=O)c1cccn2cc(CN3CCOC4CCCCC43)nc12` (stereo not drawn) [CBK304949] the “% of control remaining” value [1] was 59.2051.

For `Clc1nc2ccccc2nc1N1CCNCC1` [CBK003880], the “% of control remaining” value [1] was 99.471.

`CCOCCCNc1nc2c(c(=O)[nH]c(=O)n2C)n1CCC(C)C` [CBK287968] was tested, and the “% of control remaining” value [1] was 127.884.

With `COc1ccc(Nc2ccc(-c3ccc4ccccc4c3)cn2)cn1` [CBK037744] the “% of control remaining” value [1] was 86.0211.

`NC(=O)CN1CCC(Oc2nccnc2OCC2COc3ccccc3O2)CC1` (stereo not drawn) [CBK082987T] was tested, and the “% of control remaining” value [1] was 106.151.

`Cn1c(=O)c2c(nc(NCCO)n2CCc2ccccc2)n(C)c1=O` [CBK267497] was tested, and the “% of control remaining” value [1] was 97.8977.

`COc1ccc(-c2cc(C(=O)N3CCN(C(C)=O)CC3)cnc2-c2ccc(Cl)cc2)cc1` [CBK037577] was tested, and the “% of control remaining” value [1] was 91.6474.

With `COc1cccc(C(=O)Oc2ccc3c(=O)c(-c4nc5ccccc5s4)c(C)oc3c2)c1` [CBK265540] the “% of control remaining” value [1] was 94.5598.

With `CC(=O)Nc1c(C)ccc(S(=O)(=O)N2CCOCC2)c1C` [CBK034327] the “% of control remaining” value [1] was 54.3504.

`Nc1nn2c(-c3cccc(Cl)c3)nnc2s1` [CBK288122] was tested, and the “% of control remaining” value [1] was 79.9389.

For `COc1ccc(-c2noc([C@@H]3Cc4[nH]cnc4CN3C(=O)Nc3ccc(C)cc3)n2)cc1` [CBK288968], the “% of control remaining” value [1] was 89.9769.

With `O=C1CSC2(C(=O)Nc3ccc(Br)cc32)N1c1cccc([N+](=O)[O-])c1` (stereo not drawn) [CBK093451] the “% of control remaining” value [1] was 93.4479.

For `O=C(Cc1c[nH]cn1)N1CCN(c2ncccn2)CC1` [CBK144527], the “% of control remaining” value [1] was 90.9957.

With `COc1cc(CN2CCN(Cc3ccncc3)CC2)cc(OC)c1O` [CBK263401] the “% of control remaining” value [1] was 104.224.

With `O=C(Nc1ccc(N2CCNCC2)nc1)C1(c2ccccc2)CCCCC1` [CBK028269T] the “% of control remaining” value [1] was 120.018.

`Cc1ccc2nsnc2c1NC(=O)COc1ccccc1F` [CBK269420] was tested, and the “% of control remaining” value [1] was 50.7542.

For `N/C(Cc1ccc(Cl)cc1Cl)=N\OC(=O)c1cccc([N+](=O)[O-])c1` [CBK264317], the “% of control remaining” value [1] was 100.513.

For `c1ccc(CCN2CCC(n3cnc4cccnc43)CC2)cc1` [CBK283581], the “% of control remaining” value [1] was 88.9219.

For `CCC(CO)Nc1cncc(-c2cccc(/C=C/C(=O)O)c2)n1` (stereo not drawn) [CBK065569], the “% of control remaining” value [1] was 95.0077.

With `Cc1ccc(-c2nccnc2OC2CCCCC2)c(C)c1` [CBK106983] the “% of control remaining” value [1] was 89.5135.

With `CCN(Cc1ccccc1)C(=O)NCCCSC` [CBK155214] the “% of control remaining” value [1] was 109.525.

In the case of `Cc1csc2c(N3CCC(OCCN4CCCC4)CC3)ncnc12` [CBK304095], the “% of control remaining” value [1] is reported as 62.3336.

With `CC(=O)Nc1ccc(-c2cncc(N(CCO)CCO)n2)cc1` [CBK065789] the “% of control remaining” value [1] was 134.803.

With `COc1cccc(CCNCC(O)COc2ncnc3ccccc23)c1` (stereo not drawn) [CBK028127T] the “% of control remaining” value [1] was 103.423.

`CCN(CC)CCN1CCN(c2cc(-c3cccnc3)ncn2)CC1` [CBK036957] was tested, and the “% of control remaining” value [1] was 60.6285.

With `O=C(NCCc1c[nH]c2ccc(Cl)cc12)c1ccc(Cl)cc1Br` [CBK159755] the “% of control remaining” value [1] was 27.044.

In the case of `O=C(NC(c1ccc(-c2ccccc2)cc1)c1cnccn1)C1CCN(CCCN2C(=O)C3CCCCC3C2=O)CC1` (stereo not drawn) [CBK147856], the “% of control remaining” value [1] is reported as 84.7539.

In the case of `CC1=C(C(=O)Nc2ccccc2)C(c2ccccc2)C(C#N)=C(SCc2ccncc2)N1` (stereo not drawn) [CBK267448], the “% of control remaining” value [1] is reported as 100.882.

In the case of `O=C(Nc1cccc(Cl)c1Cl)c1cnccn1` [CBK288243], the “% of control remaining” value [1] is reported as 70.9411.

With `Cc1cc(C)c2c(n1)oc1c(Cl)ncnc12` [CBK008822] the “% of control remaining” value [1] was 54.4015.

With `CCn1c(SCC(N)=O)nnc1C(C)Oc1ccc(C)c(C)c1` (stereo not drawn) [CBK270289] the “% of control remaining” value [1] was 92.5718.

`CCN1CC2(CCCN(Cc3cncn3C3CCCCC3)C2)CCC1=O` (stereo not drawn) [CBK307223] was tested, and the “% of control remaining” value [1] was 66.7826.

In the case of `Nc1nnc(C(F)(F)F)o1` [CBK023457], the “% of control remaining” value [1] is reported as 59.8956.

`O=C(COc1ccccc1)N1CCN(Cc2ccccn2)CC1` [CBK073265G] was tested, and the “% of control remaining” value [1] was 103.699.

With `COc1ccc([C@@]23CCN(C(=O)Nc4ccc(F)c(F)c4F)C[C@@H]2CN(C)C3)cc1OC` [CBK074305T] the “% of control remaining” value [1] was 67.0639.

`COC(=O)c1ccc(N2CCN(Cc3cnoc3C)C(C)C2)cc1` (stereo not drawn) [CBK306442] was tested, and the “% of control remaining” value [1] was 51.8715.

With `COCCN1C(=O)C2(CC(=O)N(CCOc3ccccc3)C2=O)c2ccccc21` (stereo not drawn) [CBK075322] the “% of control remaining” value [1] was 90.8154.

`Cc1ccc(S(=O)(=O)NCCN2CCN(S(=O)(=O)c3ccc(C)cc3)CC2)cc1` [CBK265461] was tested, and the “% of control remaining” value [1] was 119.902.

`Cc1ccc(N2CCCn3c2nc2c3c(=O)n(CC(=O)O)c(=O)n2C)cc1` [CBK286740] was tested, and the “% of control remaining” value [1] was 68.9567.

With `COC(=O)Cc1ccc(NC(=S)N2CCC(C(N)=O)(N3CCCCC3)CC2)cc1` [CBK266101] the “% of control remaining” value [1] was 87.153.

With `CCOC(=O)c1sc(NS(=O)(=O)c2ccc(Cl)c(Cl)c2)nc1C` [CBK077228] the “% of control remaining” value [1] was 89.8726.

`COc1ccc2nc(NC(=O)c3cnc(-c4ccc(Cl)cc4)c(-c4cccnc4)c3)sc2c1` [CBK037576] was tested, and the “% of control remaining” value [1] was 140.737.

For `CCc1nnc(NC(=O)CCc2ccccc2)s1` [CBK057943], the “% of control remaining” value [1] was 78.1561.

With `COc1cc(Cl)cc(C2NC(=S)NC(c3ccccc3)=C2C(C)=O)c1OCC(=O)O` (stereo not drawn) [CBK268801] the “% of control remaining” value [1] was 117.707.

In the case of `N#Cc1ccccc1NC(=O)CSc1cnn[nH]1` [CBK269795], the “% of control remaining” value [1] is reported as 100.354.

With `O=C(CSc1nn2cnnc2s1)Nc1ccc(I)cc1` [CBK268913] the “% of control remaining” value [1] was 75.6719.

In the case of `CC(C)CN1CCC(C(=O)NC(c2ccc(Cl)cc2)c2cnccn2)CC1` (stereo not drawn) [CBK148026], the “% of control remaining” value [1] is reported as 100.139.

With `CC(C)(O)C1(C)OC(NC2C3CC4CC(C3)CC2C4)=NC1=O` (stereo not drawn) [CBK126370] the “% of control remaining” value [1] was 86.3282.

With `O=C(Nc1nc(-c2ccncc2)cs1)c1sc2ccccc2c1Cl` [CBK287562] the “% of control remaining” value [1] was 113.812.

With `COCC1(C(=O)N2CC(=O)N(c3ccccc3C#N)CC2C)CCC1` (stereo not drawn) [CBK307159] the “% of control remaining” value [1] was 60.0253.

With `CC(Oc1ccccc1F)C(=O)N1CCCCC1CN(C)C` (stereo not drawn) [CBK281544] the “% of control remaining” value [1] was 89.7135.

`CC(=O)NC1CCN(c2nc(C(C)(C)C)nc3c2cnn3C)CC1` [CBK307431] was tested, and the “% of control remaining” value [1] was 87.0867.

In the case of `O=C(N[C@@H]1CNCCC[C@H]1O)c1ccc(OCCN2CCOCC2)cc1` [CBK289065], the “% of control remaining” value [1] is reported as 96.6219.

`CC1=CC(C)C2C(=O)N(c3ccc(C(=O)O)cc3)C(=O)C2C1` (stereo not drawn) [CBK286923] was tested, and the “% of control remaining” value [1] was 88.0242.

With `O=[N+]([O-])c1ccc(OC(CNS(=O)(=O)c2ccc(Cl)cc2)c2ccccc2)cc1` (stereo not drawn) [CBK262817] the “% of control remaining” value [1] was 81.35.

With `COc1ccccc1C(=O)O/N=C1/CCCc2c1ccc(OC)c2[N+](=O)[O-]` [CBK263555] the “% of control remaining” value [1] was 63.5913.

For `CCOc1cc2c(cc1NC(=O)CN(c1cccc(Cl)c1)S(C)(=O)=O)OC(C)C2` (stereo not drawn) [CBK248179], the “% of control remaining” value [1] was 119.9.

For `CCOc1ccc(S(=O)(=O)N2CCN(S(=O)(=O)c3cccc([N+](=O)[O-])c3)CC2)cc1` [CBK266341], the “% of control remaining” value [1] was 116.097.

`COc1ccc2c(C)nc(NC3=NC(c4ccccc4)CC(=O)N3)nc2c1` (stereo not drawn) [CBK270230] was tested, and the “% of control remaining” value [1] was 137.207.

For `CCc1nc2c(OCCOc3ccccc3)cccn2c1N(C)C(=O)COc1ccccc1` [CBK147355], the “% of control remaining” value [1] was 93.4529.

With `COC(=O)c1ccc(-c2cc3ccccc3o2)nc1` [CBK149228T] the “% of control remaining” value (total inclusion area, 28.5 h, 10 µM, inhibitor) was 104.271.

With `CC(C)c1ccc2oc(-c3ccc(NC(=S)NC(=O)c4cncc(Br)c4)cc3)nc2c1` [CBK264913] the “% of control remaining” value [1] was 106.057.

In the case of `CCOC(=O)c1cc(NC(=O)CSc2nc3ccccc3[nH]2)ccc1Cl` [CBK266557], the “% of control remaining” value [1] is reported as 108.605.

In the case of `O=C(O)c1n[nH]c2c1COc1ccccc1-2` [CBK266356], the “% of control remaining” value [1] is reported as 91.6068.

For `O=C(CSc1nc2sc3c(c2c(=O)n1CCc1ccccc1)CCCC3)Nc1ccccc1` [CBK267281], the “% of control remaining” value [1] was 91.4312.

With `c1ccc(CN2CCC(NCc3ccco3)C(c3ccccc3)C2)cc1` (stereo not drawn) [CBK286167] the “% of control remaining” value [1] was 91.9892.

`Cc1ccc(-c2nccnc2OCc2ccco2)cc1C` [CBK106863] was tested, and the “% of control remaining” value [1] was 136.946.

With `CCC(=O)N1CCC(NCc2ccc(OCC(N)=O)cc2)C(C)C1` (stereo not drawn) [CBK303989] the “% of control remaining” value [1] was 49.2002.

With `Nc1ccc(-c2ccc3c(c2)OCCCO3)c2ccccc12` [CBK084325] the “% of control remaining” value [1] was 77.4575.

`O=C(C1CCCCC1)N1CC[C@H](c2nnc(-c3cccnc3)o2)C1` [CBK289412] was tested, and the “% of control remaining” value [1] was 84.2165.

`CC(C)(C)OC(=O)N1CCN(c2nccnc2OCCO)CC1` [CBK001869] was tested, and the “% of control remaining” value [1] was 93.045.

In the case of `CC(C)C(=O)N1CCCC2(CC1)CN(C)Cc1ccccc1O2` (stereo not drawn) [CBK285132], the “% of control remaining” value [1] is reported as 77.525.

With `O=C(c1cncnc1)N1CCC(Cc2ccccc2)CC1` [CBK200212] the “% of control remaining” value [1] was 110.87.

With `CCCCN1CCN(S(=O)(=O)c2ccc(Br)cc2)CC1` [CBK144055] the “% of control remaining” value [1] was 65.4509.

Source: paper PMC12040169 (PLOS Biology, 2025)
